According to PubChem BioAssay AID1347120 (National Center for Advancing Translational Sciences (NCATS), 2019):
Values joined by “and” are separate entries in the source; they are usually repeats but may differ in a detail not shown here. Equal values may be shown once. Among all 390,000 compounds or so, about 930 (0.24%) were called active. Inconclusive means that the source gave no clear call. Such entries were picked first, then a sample of the others. The call rests on the fitted dose curve; in most records, active means well fitted activation curve with a large enough effect; inconclusive means small, poorly fitted or top-dose-only effect; inactive means no such curve, though single readings can be large or run the other way. Potencies beside an inconclusive call are fits to weak or partial responses and may not hold up.

experiment: qHTS for Suppressors of FUS Proteinopathy: Primary screen using FUS-linked yeast assay; further: nearly all actives have a fitted effect of over 55% in size; conditions: S. cerevisiae FUS-expressing, OD600, 24 h; Potency: growth rescue; series mostly up to 76.6 µM
Outline: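 Yeast FUS proteinopathy model; galactose-induced FUS (2%), starting OD 0.005. Cpds in dilution series, 24hr, 30C, 99% humidity. Abs 600 nm growth. Pos ctrl CP55940 (top 92uM final); neg ctrl DMSO.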
Potency means the concentration at half of the fitted maximal effect; tags describe the fitted curve by direction and shape.

Compound	Potency
Cc1sc2ncnc(NCC(c3ccco3)N(C)C)c2c1C (stereo not given)	inactive
Cn1cccc1C(=O)N1CCN(S(=O)(=O)c2cccc3ccccc23)CC1	inconclusive: 25.1 µM [activator, partial curve, poor fit]
COc1ccc(CCNc2nc(N3CCCCC3)nc(N3CCCCC3)n2)cc1OC	inactive
Oc1ccccc1-c1nc(/C=C/c2ccccc2Cl)nn1-c1ccccc1	inactive
COc1cc(NC(=O)c2cccc3c2C(=O)N(C2CCCCC2)C3)cc(OC)c1OC	inconclusive: 35.5 µM [activator, single point] and inconclusive: 50.1 µM [activator, partial curve, poor fit]
COCCn1c(N)c(N(Cc2ccccc2)C(=O)c2ccc(-c3ccc(Cl)cc3)o2)c(=O)[nH]c1=O	inactive
CCc1nnc(NS(=O)(=O)c2ccc(NC(=O)c3cccc(OC(F)(F)C(F)F)c3)cc2)s1	inconclusive: 50.1 µM [activator, single point]
CCOC(=O)C(C(=O)OCC)C(=O)c1cccc2ccc3ccccc3c12	inconclusive: 17.8 µM [activator, partial curve]
Cc1[nH][nH]c(=O)c1C(c1c(C)[nH][nH]c1=O)c1cn(Cc2ccc(F)cc2)c2ccccc12	inconclusive: 39.8 µM [activator, single point]
CCOC(=O)c1c(-c2ccc(OC)cc2)oc2ccc(OCc3ccccc3C)cc12	inactive
Cc1ccc2nc(Cl)c(C3CC(c4ccco4)=NN3C(=O)CCCC(=O)O)cc2c1 (stereo not given)	inconclusive: 35.5 µM [activator, partial curve, poor fit]
CN1C(=O)[C@H]2[C@@H](/C=C/c3ccccc3)N3C(=O)CN(Cc4ccc(-c5ccccc5)cc4)C(=O)[C@@]3(C)[C@H]2C1=O	inconclusive: 35.5 µM [activator, single point]
COc1ccc(C2Nc3ccccc3-c3cc(C)nn32)cc1OC (stereo not given)	inactive
O=S(=O)(c1ccc(-c2csc(-c3cccnc3)n2)cc1)N1CCCCC1	inconclusive: 31.6 µM [activator, partial curve, poor fit]
CN(C)CCCN(C(=O)c1ccc(S(=O)(=O)N2CCCCCC2)cc1)c1nc2ccc(F)cc2s1	inconclusive: 17.8 µM [activator, partial curve, poor fit]
COc1ccc(Cl)cc1NC(=O)CN(C)C(=O)c1ccc(OCc2ccccc2)c(OC)c1	inconclusive: 50.1 µM [activator, single point]
CSCCC(NC(=O)c1ccc(Cl)cc1)C(=O)OCC(C)=O (stereo not given)	inactive
Cc1ccc(C(=O)N/C(=C/c2ccco2)C(=O)N2CCCCC2)cc1	inconclusive: 3.98 µM [activator, full curve]
O=C(CCC(=O)N1CC2CCCN2c2ccccc21)NCc1ccc(Cl)cc1 (stereo not given)	inconclusive: 31.6 µM [activator, partial curve, poor fit]
CCOC(=O)C1CCCN(C2=C(NS(=O)(=O)c3ccc(Br)cc3)C(=O)c3ccccc3C2=O)C1 (stereo not given)	inconclusive: 31.6 µM [activator, partial curve]

Compound	Potency
CC(=O)N(Cc1c(C)nn(-c2ccccc2)c1Cl)c1ccc(Cl)cc1	inactive
C[C@@H]1CC2[C@@H]3CC[C@H]4CC(=O)CC[C@]4(C)C3=CC[C@]2(C)[C@@]1(O)C(=O)CO (stereo not given in full)	inactive
COc1ccc(-c2nc3ccc(NS(=O)(=O)c4ccc(C)cc4)cc3o2)cc1	inconclusive: 2.82 µM [activator, full curve]
CC(=O)N1CCN(c2ccc(NCc3ccc(C(C)C)cc3)cc2)CC1	inconclusive: 35.5 µM [activator, single point]
CC(C)N(C(=O)CSc1ccc(S(=O)(=O)N2CCCCC2)cn1)c1ccccc1	inconclusive: 22.4 µM [activator, partial curve, poor fit]
CCN(Cc1ccccc1)S(=O)(=O)c1ccc(C(=O)N(CCCN(C)C)c2nc3c(C)c(C)ccc3s2)cc1	inconclusive: 44.7 µM [activator, single point]
N#C/C(=C\c1ccc(-c2ccc(C(=O)O)cc2)o1)C(=O)Nc1ccccc1C(=O)O	inactive
CCOC(=O)c1sc(=S)n(-c2ccc(OC)cc2)c1C	inactive
N#C/C(=C\C1CC=CCC1)c1nc2ccccc2[nH]1 (stereo not given)	inconclusive: 56.2 µM [activator, partial curve, poor fit]
Cc1oc2cc3oc(=O)c(CCC(=O)N4C[C@H]5C[C@@H](C4)c4cccc(=O)n4C5)c(C)c3cc2c1C	inconclusive: 20 µM [activator, partial curve]
COc1cc(Nc2nc(SCC(=O)c3ccc(Br)cc3)nc3ccccc23)cc(OC)c1	inconclusive: 22.4 µM [activator, single point]
CCC1CCc2sc(C(=O)N(C)CC(=O)Nc3ccc(N4CCOCC4)cc3)cc2C1 (stereo not given)	inactive
O=C(CC1N=C2c3ccccc3N=C(SCc3cccc(Cl)c3)N2C1=O)NCc1ccc2c(c1)OCO2 (stereo not given)	inconclusive: 50.1 µM [activator, single point]
Cc1ccc2c(CN3CCN(S(=O)(=O)c4ccccc4C(F)(F)F)CC3)cc(=O)oc2c1C	inconclusive: 6.31 µM [activator, full curve, poor fit]
Cc1ccc(Cc2c(C)nc3nc(SCC(=O)NC4CCC(C)CC4)nn3c2C)cc1 (stereo not given)	inactive
Cc1noc(NS(=O)(=O)c2ccc(NC(=O)CSc3nnc4c(n3)[nH]c3ccccc34)cc2)c1C	inconclusive: 22.4 µM [activator, partial curve, poor fit]
COc1ccc(-c2cn(-c3ccc(C)cc3)c(S(=O)(=O)CC(=O)Nc3ccc(F)cc3)n2)cc1	inconclusive: 50.1 µM [activator, single point]
CCOc1ccc(-n2cc(-c3ccccc3)c3c(N4CCOCC4)ncnc32)cc1	inconclusive: 50.1 µM [activator, single point]
O=C(Nc1ccc(-c2nc3cc(Cl)ccc3c(=O)o2)cc1)c1ccco1	inconclusive: 28.2 µM [activator, partial curve, poor fit]
COc1ccc2c(c1)OC[C@H]1[C@H]2N2C(=O)CN(Cc3ccc(F)cc3)C(=O)[C@@]2(C)[C@H]1c1ccccc1	inconclusive: 28.2 µM [activator, single point]

Compound	Potency
CC(=O)N1CCc2c(sc(NC(=O)CSc3ccccc3)c2-c2nc3ccccc3s2)C1	inconclusive: 31.6 µM [activator, partial curve, poor fit]
COc1ccc(-c2cc(C(F)(F)F)c3c(=O)n(-c4ccccc4)[nH]c3n2)cc1	inactive
Cc1c(C(=O)NCc2cccc(Cl)c2)sc2ncnc(N(C)C3CCCCC3)c12	inconclusive: 50.1 µM [activator, single point]
CCCCCCCNC(=O)C1(CC2CC(c3cccc(Br)c3)=NO2)CCN(C(=O)C2(C)CC2)CC1 (stereo not given)	inconclusive: 31.6 µM [activator, single point]
COc1ccc(S(=O)(=O)Nc2ccc(NC(C)=O)cc2)cc1Cl	inconclusive: 4.47 µM [activator, single point]
O=C(CN1CCN(c2ccc(O)cc2)CC1)Nc1ccc2c(c1)OCCCO2	inactive
CC1(C)CC(CC(=O)O)(c2ccc(F)cc2)CCO1 (stereo not given)	inactive
Cc1cccc(CNC(=O)CCn2c(=O)c3cccn3c3ccc(F)cc32)c1	inactive
O=C(Nc1ccc(N2CCOCC2)cc1)c1cccc2ccccc12	inactive
CC(C)(C)OC(=O)CNC(=O)c1[nH]cnc1C(=O)Nc1ccc(CNC(=O)OC(C)(C)C)cc1	inconclusive: 25.1 µM [activator, partial curve]
CS(=O)(=O)c1ccc(Cl)c(NC(=O)C2CCN(S(=O)(=O)c3cccs3)CC2)c1	inconclusive: 25.1 µM [activator, partial curve, poor fit]
C[C@H](O)[C@@H]1C(=O)N2CCc3ccc(-c4ccccc4)cc3[C@@H]2C[C@@H]1N(C)C(=O)c1ccc(C#N)cc1	inconclusive: 25.1 µM [activator, single point]
O=C(CN1N=C(c2ccc(Cl)cc2)CCC1=O)NCCc1ccc(Cl)cc1	inconclusive: 3.55 µM [activator, single point]
CC(=O)c1cccc(NC(=O)c2oc3c(c2C)-c2nn(Cc4ccc(Cl)cc4)cc2CC3)c1	inconclusive: 35.5 µM [activator, single point]
CCOC(=O)c1c(-c2ccccc2)oc2ccc(NS(=O)(=O)c3cc(C)c(C)cc3C)cc12	inconclusive: 50.1 µM [activator, single point]
C#CCOCCOCCOCCNc1nc(N2CCN(C(=O)CCCCCCCCCCNC(=O)[C@H](CCCCN)n3cc(C)nn3)CC2)nc(N2CCN(C(=O)CCCCCCCCCCNC(=O)[C@H](CO)n3cc(CCCSC)nn3)CC2)n1	active: 11.2 µM
COc1ccc(C(NC(=O)C(C)C)c2c(O)ccc3ccccc23)cc1OC (stereo not given)	inactive
COc1cc(OC)cc(C2=Cc3ccccc3C(CC(C)=O)N2c2ccc(C#CC3(N)CCCCC3)cc2)c1 (stereo not given)	inconclusive: 50.1 µM [activator, single point]
O=C(CSc1n[nH]c(=O)n1C1CC1)N1N=C(c2ccc(Cl)cc2)CC1c1ccco1 (stereo not given)	inconclusive: 17.8 µM [activator, partial curve, poor fit]
CN(C)/C=C/C(=O)c1ccc([N+](=O)[O-])c(CS(=O)(=O)c2ccc(Cl)cc2)c1	inconclusive: 7.94 µM [activator, partial curve]
